Out of some 50,000 compounds screened, about 800 (1.6%) showed an effect of 50% or more. This is one part of the list.

The target of this assay is Bcl-2-like protein 10 (Homo sapiens) (UniProt Q9HD36). Description: Phenotype converters, Bcl-B/TR3 peptide binding displacement, primary biochemical FP (AID 1240).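 Note: 0% = Bcl-B with tracer peptide and DMSO and 100% = tracer peptide lacking Bcl-B.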 Conditions: GST-Bcl-B / FITC-TR3 peptide fluorescence polarization; stronger effect = higher value; compound at 3.75 mg/L. For orientation: Polarisation of emitted light reports the rotation of a fluorescent probe.
UniProt Q9HD36, sequence (Q9HD36 whole entry, looked up): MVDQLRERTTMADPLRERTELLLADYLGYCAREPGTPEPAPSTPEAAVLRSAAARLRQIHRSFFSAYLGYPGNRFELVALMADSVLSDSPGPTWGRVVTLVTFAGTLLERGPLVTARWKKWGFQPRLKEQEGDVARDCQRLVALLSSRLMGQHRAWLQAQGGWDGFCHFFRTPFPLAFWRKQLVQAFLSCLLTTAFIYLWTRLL
With `CCOC(=O)c1c(NC(=O)C2CC2)sc(C(=O)Nc2ccccc2F)c1C`, the displacement is -15.7%.
As for `CCOc1ccc2c(C)c(Cl)c(=O)oc2c1`, the figure is 6.4%; as for `COc1ccc2c(c1)C1=C(CC2)C(c2ccc(N(C)C)cc2)NC(=S)N1` (configuration not stated), 2.6%; as for `COc1ccc(-n2c(SCC(=O)Nc3ccccc3C)nc(O)c(Cc3ccccc3)c2=O)cc1`, 3.6%.
To `N#CC(C(=O)O)=C1C2CC3CC(C2)CC1C3` belongs -6.4%.
On to `O=C1CC(c2ccccc2Cl)CC2=C1C(c1cccs1)Nc1ccccc1N2` (configuration not stated), for which the displacement was 2.9%.
To `CCOC(=O)C1=NNC2C(=O)N(CC)C(=O)C12` (configuration not stated) belongs 2.2%; to `Cc1nc2c(-c3ccccc3)c(C)[nH]n2c(=O)c1Cc1ccccc1`, -6.7%.
To `CCc1ccc(OCCSc2nc3ccccc3c(=O)[nH]2)cc1` belongs 2.4%; to `NC(=O)c1c(NC(=O)c2ccc([N+](=O)[O-])s2)sc2c1CCCC2`, 11.9%; to `CCCOc1ccc(/C=C2/C(=O)NC(=O)N2C(C)=O)cc1OC`, 8.2%.
As for `COc1ccc(C)cc1NC(=O)COc1cc(C)c(Cl)c(C)c1`, the figure is -1.6%; as for `CCOc1cc(/C=C2\SC(=S)N(c3ccc(F)cc3)C2=O)ccc1O`, 11.8%; as for `CCOC(=O)c1c(C)nc2c(c1C)/C(=N/O)CC(C)(C)C2`, 14.5%.
For the compound `COc1cccc(C2NC(=O)NC(C)=C2C(=O)Nc2ccc(C)cc2)c1OC` (configuration not stated), the displacement came out at 8.2%.
As to `Cc1cccc(NC(=O)c2ccc(C(=O)Nc3cccc(C)c3)nc2)c1`, the displacement is -4.1%.
In the case of `O=C(COc1ccc(Br)cc1)NNC(=O)c1ccccc1`, the displacement is -0.3%.
To `CN(Cc1ccccc1)Cc1c[nH]c2ccccc12` belongs 5.8%; to `CC(=O)/C=C(\C)N1N=C(c2ccccc2)CC1c1cccc([N+](=O)[O-])c1` (configuration not stated), -5.8%; to `CCC(=O)c1ccc(N2CCCCC2)c(F)c1`, -16.6%.
As for `O=S1(=O)CCC(NC(=S)N/N=C/c2ccc(-c3cc(Cl)ccc3Cl)o2)C1` (configuration not stated), the figure is 9.8%; as for `OC1(C(F)(F)F)CC(c2ccccc2)=NN1C(=S)c1ccccc1` (configuration not stated), -10.5%.
Turning to `O=C(CSc1nc2ccccc2[nH]1)N/N=C/c1c(F)cccc1Cl`, the displacement was -10.1%.
As for `CC1(C)CC(=O)C2=C(C1)Nc1ccccc1N(C(=O)C(F)(F)F)C2c1ccco1` (configuration not stated), the figure is 5.9%.
As for `O=C(/C=C/c1ccccc1)Nc1ccc(F)c(F)c1`, the figure is -7.7%; as for `CCOc1ccc(S(=O)(=O)NCc2ccccc2Cl)c2ccccc12`, 3.4%; as for `Cc1cccc(N2CCN(C(=O)c3ccc(Cl)c(Cl)c3)CC2)c1C`, -4.2%.
`COC(=O)CC(C(=O)OC)P(=O)(O)CN(C)S(C)(=O)=O` (configuration not stated): the displacement is -10.4%.
Take `CC(C)CN1C(=O)c2ccc(C(=O)c3cccc([N+](=O)[O-])c3)cc2C1=O`: the displacement is -0.6%.
As for `CN1CCN(Cn2c(O)c(N=NC(=O)c3cccnc3)c3cc(Br)ccc32)CC1`, the figure is -7%; as for `COc1ccc(O)c(/C=C2\SC(=S)N(C)C2=O)c1`, -41.4%.
As for `COc1cc(C(=O)NCc2cccc3ccccc23)cc(OC)c1OC`, the figure is 9.9%; as for `Cn1c(O)c(C=NCc2ccc(Cl)c(Cl)c2)c(=O)n(C)c1=O`, -7.3%.
On to `Cc1c(C(=O)NC(C)c2ccccc2)cccc1[N+](=O)[O-]` (configuration not stated), for which the displacement was -12%.
In the case of `Cc1ccc(C2=NC(=O)/C(=C/c3cc4c(cc3Br)OCO4)S2)cc1`, the displacement came out at 16.4%.
With `O=C(Nc1cccnc1)c1ccccc1F`, the displacement is -2.4%.
Regarding `O=C1CC(Nc2ccc(F)cc2)C(=O)N1c1ccccc1Cl` (configuration not stated), the displacement was 10.8%.
On to `CCOc1ccc(C(=O)Nc2ccc(C(C)=O)cc2)cc1OCC`, for which the displacement amounted to 22.5%.
In the case of `C/C(=C/C(=O)C(F)(F)C(F)F)NCCN/C(C)=C\C(=O)C(F)(F)C(F)F`, the displacement was -3.9%.
As for `CCOc1ccc(S(=O)(=O)N(CC(=O)NC(C)(C)C)c2ccc(C)cc2)cc1`, the figure is -6.4%.
For the compound `CCOc1ccc(-n2nc3ccc(NC(=O)c4ccc([N+](=O)[O-])cc4Cl)cc3n2)cc1`, the displacement is -0.3%.
As for `O=C(/C=C/c1ccc(F)cc1)n1cnc2ccccc21`, the figure is -3.1%; as for `O=C(CSc1ncn[nH]1)c1cccc([N+](=O)[O-])c1`, 6.7%.
With `COc1ccc(N2C(=O)S/C(=C/c3ccc(OC)c(OC)c3)C2=O)cc1`, the displacement came to 15.9%.
In the case of `COc1ccc2oc(=O)c(C(=O)Nc3ccc(Cl)c(Cl)c3)cc2c1`, the displacement was found to be 16.2%.
As for `CC(C)(C)c1ccc(CNc2cc(N3CCOCC3)ccc2[N+](=O)[O-])cc1`, the figure is 10.8%; as for `O=C(O)c1cccc(N2C(=O)c3ccc(OCCOc4ccc5c(c4)C(=O)N(c4cccc(C(=O)O)c4)C5=O)cc3C2=O)c1`, -0.6%; as for `CCOC(=O)C(CCCCCOc1cccc(Cl)c1)C(=O)OCC`, -6%.
Consider `O=C(COc1cccc2ccccc12)NCc1ccccn1`, for which the displacement was 9.3%.
As for `Cc1ccc(OCCOCCOc2ccc(Br)cc2/C=N\n2cnnc2)cc1`, the figure is -9.7%.
As for `O=C(O)CCCC(=O)NCc1ccc(C(=O)O)cc1`, the figure is -4.5%.
For `COc1ccc(CCNC(=O)c2cc3nc(-c4cccs4)cc(C(F)(F)F)n3n2)cc1OC`, the displacement is 8.5%.
Turning to `COc1cc(/C=N/n2cnnc2)cc(Br)c1OCc1ccc(Cl)cc1Cl`, the displacement is -11.4%.
For `Cc1ccc(OCC(=O)Nc2cc(C)cc(C)c2)cc1`, the displacement turned out to be 4.9%.
As to `O=[N+]([O-])c1cc(-n2ncnc2-c2ccc3c(c2)OCO3)ccc1F`, the displacement was found to be 16.6%.
For `CC(=O)C1=C(O)C(=O)N(CCN(C)C)C1c1ccccc1F` (configuration not stated), the displacement amounted to 0.9%.
Consider `COC1=C(c2ccccc2)C(=O)c2ccccc2C1=O`, for which the displacement was -8.5%.
On to `O=C(NCc1ccccc1)C(NC(=O)c1ccccc1)=C1CCCCC1`, for which the displacement came to 8.5%.
In the case of `O=C(Nc1ccc(Br)cc1)c1cc2ccccc2o1`, the displacement turned out to be 3.4%.
As for `Cc1ccc(N2CCN(/N=C\c3ccccn3)CC2)cc1`, the displacement is -8.8%.
As for `C/C(=N\OCC(=O)N/N=C/c1cc(Br)cc(Br)c1O)c1cccs1`, the figure is 1.7%; as for `COc1cccc2sc(NC(=O)/C=C/c3ccc([N+](=O)[O-])cc3)nc12`, 8.7%.
As to `CC(C)NC(=O)/C(=C/c1ccccc1)c1ccccc1`, the displacement was 9.6%.
As for `O=C(CNc1ccc2ccccc2c1)N/N=C/c1ccc(Br)c([N+](=O)[O-])c1`, the figure is -4.4%; as for `Cc1cccc(CC2CC(=O)N(c3ccc(C)cc3Br)C2=O)c1` (configuration not stated), -3.3%.
In the case of `CCc1ccccc1NC(=O)COc1ccc(Br)cc1C(C)(C)C`, the displacement is -2.6%.
With `COC(=O)C1=C(C)N(CCc2ccc(OC)c(OC)c2)C(=O)/C1=C\c1ccc2c(c1)OCO2`, the displacement is -44.1%.
To `CCOc1ccc2nc(SCc3c[nH]c4cc([N+](=O)[O-])ccc34)sc2c1` belongs -5.3%.
As for `Cc1ccc(N2CC(C(=O)Nc3ccccc3)CC2=O)cc1` (configuration not stated), the figure is 9.9%; as for `Cc1cccc(C=Nc2ccc(O)cc2)c1`, -8.4%; as for `CC(c1ccccc1)N1C(=O)/C(=C\c2ccc(Cl)cc2Cl)SC1=S` (configuration not stated), -0.4%.
To `O=C(Oc1ccc(/C=N/NC(=O)C2COc3ccccc3O2)cc1)c1cccnc1` (configuration not stated) belongs -9%; to `CN1C(=O)NC(=O)/C(=C/c2ccc(-c3ccc(Cl)cc3Cl)o2)C1=O`, 72.6%; to `COc1ccc(OC)c(S(=O)(=O)NCC2CCCO2)c1` (configuration not stated), -0.6%.
On to `Nc1ccc(-c2nc3ccc(-c4ccc5nc(-c6ccc(N)cc6)[nH]c5c4)cc3[nH]2)cc1`, for which the displacement amounted to 28.8%.
With `COc1cc(OC)c(/C=N/NC(=O)c2cccc(Cl)c2)cc1Br`, the displacement was -0.3%.
As for `S=C(NCc1cccnc1)NC12CC3CC(CC(C3)C1)C2`, the displacement is -3.5%.
As to `COc1ccc2c(c1OC)C(=O)OC2Nc1ncccc1C` (configuration not stated), the displacement turned out to be 7.2%.
Consider `COc1cc(/C=C(\C#N)c2nc3ccccc3[nH]2)c(Br)cc1O`, for which the displacement was -96.8%.
To `Cc1ccc(P(=O)(CSC(=N)N)c2ccc(C)cc2)cc1` belongs 5.5%; to `COc1ccc(S(=O)(=O)N(CC(=O)Nc2ccc(C)c(C)c2)c2ccc(C)cc2)cc1OC`, 17.2%; to `CCCC(=O)Nc1ccc(NC(=O)c2ccc(Br)cc2)cc1`, 6.4%.
On to `CCOC(=O)C1=C(c2ccccc2)N=c2s/c(=C\c3cccnc3)c(=O)n2C1c1cccc(OC)c1OC` (configuration not stated), for which the displacement came out at 5.1%.
As for `C#CCOC(=O)CCN1C(=O)c2cccc3cccc(c23)C1=O`, the figure is 9.8%; as for `Cc1ccc(NC(=O)CN(c2ccc(Br)cc2)S(C)(=O)=O)c(C)c1`, 5%.
Regarding `Cc1ccc(-c2csc(NC(=O)c3ccc(Cl)c([N+](=O)[O-])c3)n2)cc1`, the displacement is -15.4%.
As for `Cn1c(-c2ccc(C=O)o2)nc2c3ccccc3c3ccccc3c21`, the figure is 20.9%; as for `COc1cc(OC)c([N+](=O)[O-])cc1/C=C1/C(C)=C(C#N)c2nc(N)c(C#N)c(C)c21`, 2.7%; as for `O=C(COc1ccccc1[N+](=O)[O-])Nc1cc(C(F)(F)F)cc(C(F)(F)F)c1`, -4.5%.
Consider `O=C1/C(=C/c2ccc(C(F)(F)F)cc2)SC(=S)N1Cc1ccccc1`, for which the displacement was 1.8%.
On to `COC(=O)c1cnn2c(C(F)(F)F)cc(-c3ccc(Br)cc3)nc12`, for which the displacement was -7.2%.
`COc1ccc(-n2c(=O)c3c(n4c(=S)[nH]nc24)-c2ccccc2CC32CCCCC2)cc1`: the displacement is -29.4%.
As for `O=C(c1ccccc1)c1ccc(N2CCOCC2)c([N+](=O)[O-])c1`, the figure is 11.8%; as for `O=C(O)CN(c1ccc(Cl)c(C(F)(F)F)c1)S(=O)(=O)c1ccccc1`, 8.2%.
In the case of `CCOc1cc(C(=O)Nc2ccc(OCc3ccccc3)cc2)cc(OCC)c1OCC`, the displacement was -1.8%.
As for `Cc1ccc(C(=O)CSc2nc3cc(C)c(C)cc3[nH]2)cc1`, the figure is -9.4%.
As for `COc1ccccc1CNS(=O)(=O)c1ccc(NC(C)=O)cc1`, the figure is 3.1%.
`CCOC(=O)/C(C#N)=N\Nc1ccc(C(N)=O)cc1`: the displacement was determined as 7.2%.
As for `Cc1ccsc1/C=C1\SC(=S)N(CCC(=O)O)C1=O`, the displacement came out at 2.5%.
As for `C#CCSc1nc(N)c(C#N)c(-c2ccc(O)cc2)c1C#N`, the figure is -104%; as for `Cc1ccc(NC(=O)CN(c2cccc(Br)c2)S(=O)(=O)c2ccccc2)cc1`, 0.8%.
`CCN(CC)S(=O)(=O)c1ccc(-c2ccc(S(=O)(=O)N(CC)CC)cc2)cc1`: the displacement was 0.7%.
To `CN1C(=O)N(C)C2(c3ccccc3)Nn3c(s/c(=C/c4ccc([N+](=O)[O-])cc4)c3=O)=NC12c1ccccc1` (configuration not stated) belongs -3.4%.
As for `CCOc1ccccc1NC(=O)C1C2CCC3C(CCC21)C3(Cl)Cl` (configuration not stated), the figure is -3.3%.
As for `O=C(CSc1ncccn1)N/N=C/c1ccc(F)cc1`, the figure is 1.9%.
With `COc1ccccc1/C=C1\C(=O)NC(=O)N(c2ccc(Br)cc2)C1=O`, the displacement is -17.8%.
`c1ccc(C2=NCCn3cccc32)cc1`: the displacement came out at 7.6%.
